Experimental data: patent publication US20200062844A1 (Regeneron, published 2020)
Numbering of substitutions follows the chain as printed.

Experiments:
mfFcεR1α.MMH [1] = target: T1, mfFcεR1α.MMH (cynomolgus (Macaca fascicularis)); experiment: SPR (Biacore 8k), antibody captured on anti-human Fc, mfFcεR1α.MMH injected, 37°C
T1 construct: also called mfFceR1a.MMH; ectodomain of cynomolgus FcεR1α with C-term myc-myc-6×His tag
T1 chain: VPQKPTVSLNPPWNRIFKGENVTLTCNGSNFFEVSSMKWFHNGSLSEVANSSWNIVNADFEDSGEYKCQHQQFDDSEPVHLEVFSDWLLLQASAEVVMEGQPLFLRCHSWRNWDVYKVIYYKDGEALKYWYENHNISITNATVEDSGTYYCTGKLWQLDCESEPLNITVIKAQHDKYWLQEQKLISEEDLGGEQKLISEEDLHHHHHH
Protocol: (§1) Equilibrium dissociation constants (KD) for human or cynomolgus FcεR1α ectodomain binding to purified anti-FcεR1α monoclonal antibodies (mAbs) and CD3×FcεR1α bispecific antibodies (bsAbs) were determined using a real-time surface plasmon resonance biosensor (SPR-Biacore), Biacore 8k. All binding studies were performed in 10 mM HEPES, 150 mM NaCl, 3 mM EDTA, and 0.05% v/v surfactant Tween-20, pH 7.4 (HBS-ET) running buffer at 25° C. and 37° C.
(§2) The Biacore CM4 sensor surface was first derivatized by amine coupling with a monoclonal mouse anti-human Fc antibody to capture approximately 500-900 RUs anti-FcεR1α monoclonal antibodies or anti-CD3×FcεR1α bispecific monoclonal antibodies. 1 RU (response unit) represents 1 pg of protein per mm², as defined by the manufacturer. The ectodomain of human and cynomolgus FcεR1α reagents were expressed with a C-term myc-myc-6×His tag-hFcεR1α.MMH (SEQ ID NO: 57) and mfFcεR1α.MMH (SEQ ID NO: 58). Different concentrations of FcεR1α reagents were prepared in HBS-ET running buffer (600 nM-7.4 nM; serially diluted by 3-fold) and injected over anti-human Fc captured anti-FcεR1α monoclonal antibodies or anti-CD3×FcεR1α bispecific monoclonal antibodies surfaces for 1 minute at a flow rate of 30 μL/minute. The dissociation of bound FcεR1α reagents was monitored for 4 minutes in HBS-ET running buffer. Association (kₐ) and dissociation (kd) rate constants were determined by fitting the real-time binding sensorgrams to a 1:1 binding model with mass transport limitation using Biacore 8k evaluation software. Binding dissociation equilibrium constants (KD) and dissociative half-lives (t½) were calculated from the kinetic rate constants as: […]

[2] = target: T2, human CD3 expressed in Jurkat cells (human, UniProt P07766; P04234; P20963; P09693); experiment: cell-based or functional assay
mfFcεR1α.MMH [3] = target: T1, mfFcεR1α.MMH; experiment: SPR (Biacore 8k), antibody captured on anti-human Fc, mfFcεR1α.MMH injected, 25°C
Protocol: as §1, §2

[4] = target: T2, human CD3 expressed in Jurkat cells; experiment: flow cytometry, 70 nM antibody on Jurkat/NFAT-luc cells, No IgE
Protocol: For flow cytometry analysis, HEK293, HEK293/hFcεR1α/hFcεR1β/hFcεR1γ and HEK293/mf FcεR1α/hFcεR1β/hFcεR1γ cells were collected after dissociation using Enzyme Free Dissociation Buffer (Millipore Cat# S-004), and the cells were pre-incubated with or without 70 nM human IgE, for 30 minutes on ice in FACS buffer (PBS, without Ca⁺⁺ and Mg⁺⁺, (Irvine Scientific, Cat#9240) containing 2% FBS). Jurkat/NFAT-luc cells were also collected. The antibodies at the concentration of 70 nM were then added to 1×10⁶ cells/well of each cell type at 4° C. for 30 minutes. […] Cells were fixed using BD CytoFix™ (Becton Dickinson, Cat. #554655) and analyzed on Accuri™ C6 (BD) or CytoFLEX Flow cytometer (Beckman Coulter). Unstained and secondary antibody alone controls were also tested for all cell lines and a sample was evaluated for viability using the Far Red Fluo viability dye (Thermo Fisher, Cat#L10120) according to the manufacturer's protocol. The results were analyzed using FlowJo software (version 10.0.8, FlowJo) to determine the geometric means of fluorescence for viable cells and the binding ratio was calculated with the mean fluorescence intensity (MFI) of the experimental condition normalized by the MFI of the unstained respective cells.

T2 sequence (P07766 23-207 limits assumed, chain 1 of 4): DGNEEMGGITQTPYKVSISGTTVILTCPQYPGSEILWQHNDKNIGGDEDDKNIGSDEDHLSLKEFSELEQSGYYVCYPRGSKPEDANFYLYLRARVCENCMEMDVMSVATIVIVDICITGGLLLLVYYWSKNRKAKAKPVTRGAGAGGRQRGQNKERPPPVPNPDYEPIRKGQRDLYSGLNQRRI
T2 sequence (P04234 22-171 limits assumed, chain 2 of 4, further chain): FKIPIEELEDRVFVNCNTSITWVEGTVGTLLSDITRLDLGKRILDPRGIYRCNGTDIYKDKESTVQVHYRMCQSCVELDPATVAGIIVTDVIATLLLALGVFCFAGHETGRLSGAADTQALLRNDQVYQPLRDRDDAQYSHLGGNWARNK
T2 sequence (P20963 22-164 limits assumed, chain 3 of 4, further chain): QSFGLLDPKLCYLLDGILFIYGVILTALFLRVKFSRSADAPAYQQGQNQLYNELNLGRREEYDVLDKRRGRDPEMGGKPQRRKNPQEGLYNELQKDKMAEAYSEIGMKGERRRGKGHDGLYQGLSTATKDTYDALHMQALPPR
T2 sequence (P09693 23-182 limits assumed, chain 4 of 4, further chain): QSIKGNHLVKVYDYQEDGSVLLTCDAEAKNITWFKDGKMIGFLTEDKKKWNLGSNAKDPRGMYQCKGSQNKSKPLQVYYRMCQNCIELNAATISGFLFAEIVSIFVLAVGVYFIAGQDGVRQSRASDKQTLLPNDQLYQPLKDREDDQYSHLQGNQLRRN

B1: mAb17110 (antibody, human IgG4 S228P, kappa)
heavy: QVQLQESGPGLVKPSETLSLTCTVSGDSISDYYWIWIRQPPGKGLEWIGYIYYSGSTNYNPSLKSRVTISVATSKNQFSLKLRSVTAADTAMYYCARRNNWNHVRAFDIWGQGTMVTVSSASTKGPSVFPLAPCSRSTSESTAALGCLVKDYFPEPVTVSWNSGALTSGVHTFPAVLQSSGLYSLSSVVTVPSSSLGTKTYTCNVDHKPSNTKVDKRV[human IgG4 Fc with S228P (EU numbers) omitted here]
light: [about 100 residues omitted here][about 120 residues omitted here]
notes: also called anti-FcεR1α monoclonal antibody
600 nM mfFceR1a.MMH Bound (RU) (mfFcεR1α.MMH [1]): 53 RU
Kd (mfFcεR1α.MMH [1]): 428 nM
koff (mfFcεR1α.MMH [1]): 0.0254 s⁻¹
kon (mfFcεR1α.MMH [1]): 59400 M⁻¹ s⁻¹
t½ (mfFcεR1α.MMH [1]): 27 s
Fold Activation, Jurkat/NFAT-luc with HEK293/hFcεR1α/hFcεR1β/hFcεR1γ cells, 10 nM IgE [2]: 1 fold
Fold Activation, Jurkat/NFAT-luc with HEK293/hFcεR1α/hFcεR1β/hFcεR1γ cells, No IgE [2]: 1 fold
600 nM mfFceR1a.MMH Bound (RU) (mfFcεR1α.MMH [3]): 79 RU
Kd (mfFcεR1α.MMH [3]): 221 nM
koff (mfFcεR1α.MMH [3]): 0.0136 s⁻¹
kon (mfFcεR1α.MMH [3]): 61300 M⁻¹ s⁻¹
t½ (mfFcεR1α.MMH [3]): 48 s

B2: mAb17111 (antibody, human IgG4 S228P, kappa)
heavy: B1 heavy with S30N, I35S, I37L, A72D, R83S, M92V, A96T, H103Y
light: [about 100 residues omitted here][about 120 residues omitted here]
notes: as for B1
600 nM mfFceR1a.MMH Bound (RU) (mfFcεR1α.MMH [1]): 38 RU
Kd (mfFcεR1α.MMH [1]): 510 nM
koff (mfFcεR1α.MMH [1]): 0.0264 s⁻¹
kon (mfFcεR1α.MMH [1]): 51700 M⁻¹ s⁻¹
t½ (mfFcεR1α.MMH [1]): 26.4 s
Binding Ratio (MFI of Treated/MFI of Unstained) [4]: 1
Fold Activation, Jurkat/NFAT-luc with HEK293/hFcεR1α/hFcεR1β/hFcεR1γ cells, 10 nM IgE [2]: 1 fold
Fold Activation, Jurkat/NFAT-luc with HEK293/hFcεR1α/hFcεR1β/hFcεR1γ cells, No IgE [2]: 1 fold
600 nM mfFceR1a.MMH Bound (RU) (mfFcεR1α.MMH [3]): 60 RU
Kd (mfFcεR1α.MMH [3]): 247 nM
koff (mfFcεR1α.MMH [3]): 0.0137 s⁻¹
kon (mfFcεR1α.MMH [3]): 55500 M⁻¹ s⁻¹
t½ (mfFcεR1α.MMH [3]): 48 s

B3: mAb17112 (antibody, human IgG4 S228P, kappa)
heavy: QVQVQESGPRLVKPSETLSLTCTVSGGSMSSYYWIWIRQPPGKELEWIGYIYYSGSTNYNPSLKSRATISVDTSKNQFSLNLNSVTAADTAVYYCARRNNWNYVRAFDIWGQGTMVTVSSASTKGPSVFPLAPCSRSTSESTAALGCLVKDYFPEPVTVSWNSGALTSGVHTFPAVLQSSGLYSLSSVVTVPSSSLGTKTYTCNVDHKPSNTKVDKRV[human IgG4 Fc with S228P (EU numbers) omitted here]
light: [about 100 residues omitted here][about 120 residues omitted here]
notes: as for B1
600 nM mfFceR1a.MMH Bound (RU) (mfFcεR1α.MMH [1]): 81 RU
Kd (mfFcεR1α.MMH [1]): 330 nM
koff (mfFcεR1α.MMH [1]): 0.0328 s⁻¹
kon (mfFcεR1α.MMH [1]): 99400 M⁻¹ s⁻¹
t½ (mfFcεR1α.MMH [1]): 21 s
Binding Ratio (MFI of Treated/MFI of Unstained) [4]: 1
Fold Activation, Jurkat/NFAT-luc with HEK293/hFcεR1α/hFcεR1β/hFcεR1γ cells, 10 nM IgE [2]: 1 fold
Fold Activation, Jurkat/NFAT-luc with HEK293/hFcεR1α/hFcεR1β/hFcεR1γ cells, No IgE [2]: 1 fold
600 nM mfFceR1a.MMH Bound (RU) (mfFcεR1α.MMH [3]): 110 RU
Kd (mfFcεR1α.MMH [3]): 195 nM
koff (mfFcεR1α.MMH [3]): 0.0139 s⁻¹
kon (mfFcεR1α.MMH [3]): 71300 M⁻¹ s⁻¹
t½ (mfFcεR1α.MMH [3]): 48 s
